Experimental data as given in PubChem BioAssay AID504832 (National Center for Advancing Translational Sciences (NCATS), 2011).
Where “and” joins values, the source holds several entries; their conditions need not be identical. Equal entries are not always repeated. Screen size: about 310,000 compounds; about 18,000 (5.8%) were called active. The shares of active, inactive and inconclusive entries below differ from those in the screen. Calls follow the shape of the dose curve; as a rule, active = well fitted inhibition curve with a large enough effect; inconclusive = small, poorly fitted or top-dose-only effect, or another doubt; inactive = no such curve, though single readings can be large or run the other way. Potencies of inconclusive entries are left out as doubtful fits.

Experiment: Primary qHTS for delayed death inhibitors of the malarial parasite plastid, 48 hour incubation
Conditions: P. falciparum luciferase growth in erythrocytes; series mostly up to 28.7 µM; activity change, negative = inhibition: at the top concentration
Procedure, shortened: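 Read-out is firefly luciferase luminescence from an integrated reporter in P. falciparum, so falling signal marks reduced parasite growth. Infected erythrocytes were at 2% hematocrit and 0.1% parasitemia (final) in Albumax-supplemented RPMI 1640.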
% is scaled to controls: 0 for no effect and ±100 for the full control effect; potency is read from the fitted curve at half-maximal effect; tags tell the direction and shape of the fitted curve.

SMILES	Potency	activity change, negative = inhibition
CCCCNc1nnc(SCC(=O)c2c[nH]c3ccccc23)s1	active: 10.4 µM	
CCOc1ccc(-n2ccnc(SCC(=O)Nc3ccc(OC)cc3OC)c2=O)cc1	inconclusive [inhibitor, partial curve, poor fit]	
Cc1c(Cl)c([N+](=O)[O-])nn1Cc1ccc(C(=O)NN)o1		inactive: 11.9%
O=C(Nc1ccc(C(=O)OC[C@@H]2CCCN3CCCC[C@H]23)cc1)c1cccc(Br)c1	active: 1.85 µM	
O=C(Nc1ccc(C(O)(C(F)(F)F)C(F)(F)F)cc1)c1ccc(Cl)c([N+](=O)[O-])c1	active: 11.7 µM	
CCOC(=O)CCc1c(C)nc2cc(-c3ccc(Cl)cc3)[nH]n2c1=O	inconclusive [inhibitor, single point]	
O=C(Nc1ccc2c(c1)OCO2)c1ccc(Br)c(S(=O)(=O)N2CCCC2)c1	active: 2.62 µM	
COc1cccc(CN2CC(C(=O)NCc3cccc(N4CCCC4)c3)CCC2=O)c1 (stereo not drawn)	inconclusive [inhibitor, partial curve]	
COc1ccc(S(=O)(=O)NCCC(=O)OCC(=O)c2ccc[nH]2)cc1[N+](=O)[O-]	inconclusive [inhibitor, single point]	
Cc1onc(-c2ccccc2Cl)c1C(=O)Nc1sc2c(c1C(N)=O)CCC(C)C2 (stereo not drawn)	inconclusive [inhibitor, single point]	
COc1ccccc1CN1CCNC(=O)C1CC(=O)NCc1c(C)n[nH]c1C (stereo not drawn)		inactive: 4.86%
c1ccc(CCc2nn3c(-c4ccncc4)nnc3s2)cc1	inconclusive [inhibitor, single point]	
NC(N)=N/N=C/c1c(Cl)cccc1Cl	active: 9.28 µM and active: 3.7 µM and active: 13.5 µM	
O=C(O)C1Cc2ccccc2CN1C(=O)c1ccccc1 (stereo not drawn)	inconclusive [inhibitor, partial curve, poor fit]	
O=C(N/N=C/c1c(Nc2cccc(C(F)(F)F)c2)nc2ccccn2c1=O)c1ccccc1	inconclusive [inhibitor, partial curve, poor fit]	
COc1ccc(CN(C)CC(O)COc2ccc(-c3ccccc3)cc2)cc1OC (stereo not drawn)	inconclusive [inhibitor, single point]	
Cc1ccc(C(=O)Nc2cccc(S(=O)(=O)N3CCOCC3)c2)cc1[N+](=O)[O-]	inconclusive [inhibitor, single point]	
Cc1ccc(NS(=O)(=O)c2ccc(C)c(C(=O)N3CCN(C)CC3)c2)cc1		inactive: 2.85%
CC(NC(=O)Nc1ccc([N+](=O)[O-])cc1)C(c1ccccc1)N1CCOCC1 (stereo not drawn)	inconclusive [inhibitor, partial curve]	
COc1ccccc1OCC(=O)N1CCN(C(=O)COc2ccccc2OC)CC1	inconclusive [inhibitor, full curve, poor fit]	
Cc1c(-n2c(SCC(C)C)nc3ccccc3c2=O)c(=O)n(-c2ccccc2)n1C	inconclusive [inhibitor, partial curve]	
Cc1ccn(CC(=O)N2CCCC(N3CCN(c4ccc(F)cc4)CC3)C2)n1 (stereo not drawn)	inconclusive [inhibitor, partial curve, poor fit]	

SMILES	Potency	activity change, negative = inhibition
O=C(NC1CCCC1)c1ccc2nc[nH]c2c1		inactive: 3.86%
CCN(CC)C(=O)c1ccc(/C=C/c2c[nH]c3ccccc23)[n+](C)c1	active: 0.738 µM	
CCCCN(C(=O)CCCSc1nc2ccccc2[nH]1)c1c(N)n(Cc2ccccc2)c(=O)[nH]c1=O	inconclusive [inhibitor, single point]	
O=C(O)c1cn(Cc2cccnc2)c(=O)c2ccccc12	inconclusive [inhibitor, full curve, poor fit]	
COc1cc(O)c(C(CCN2CCOCC2)c2ccc(N(C)C)cc2)c(OC)c1 (stereo not drawn)	active: 4.65 µM	
O=C(Nc1cccc(F)c1)C1CCCN(S(=O)(=O)c2ccccc2)C1 (stereo not drawn)	inconclusive [inhibitor, single point]	
COc1ccc(/C(N)=N/OC(=O)/C=C/c2ccccc2)cc1	inconclusive [inhibitor, partial curve, poor fit]	
CCOC(=O)C1C(=O)NC(SCC(=O)Nc2nccs2)=C(C#N)C1c1ccccc1OCC (stereo not drawn)	inconclusive [inhibitor, single point]	
COCCCNC(=O)c1ccc(OC)c(OC2CCN(C(C)C)CC2)c1		inactive: -34.4%
Cc1cc(Nc2ccc(Br)cc2F)n2nc(C)nc2n1	inconclusive [inhibitor, single point]	
Cc1ccc(C)c(Sc2ccc(S(=O)(=O)Nc3ccc(C(=O)O)cc3)cc2)c1	inconclusive [inhibitor, partial curve, poor fit]	
c1ccc2c(c1)OCC(CNCC1COc3ccccc3O1)O2 (stereo not drawn)		inactive: 5.47%
CCOC(=O)N1CCc2c(sc3nc4n(c(=O)c23)N=C(C)CS4)C1	inconclusive [inhibitor, partial curve]	
Cc1ccc(NC(=O)CNC(=O)c2ccc(C)o2)cc1		inactive: 46.6%
Cc1nnc2ccc(-c3ccc(NS(=O)(=O)c4ccc(F)cc4F)cc3)nn12	inconclusive [inhibitor, single point]	
COc1ccc(NC(=O)CSc2nnc(C3CC3)n2C)cc1S(=O)(=O)N1CCCCC1	inconclusive [inhibitor, single point]	
CCOc1ccc(-c2cc(C(=O)Nc3ccc4c(c3)OCCO4)c3ccccc3n2)cc1		inactive: 108%
Cc1cccc(Oc2ccc(NC(=O)c3ccccc3C(=O)O)cc2)c1C		inactive: 2.82%
Cc1cccc(NC(=O)CSCC(=O)Nc2cccc3ncccc23)c1	inconclusive [inhibitor, single point]	
Cc1ccc(NC(=O)CSc2nnc(-c3n[nH]c4ccccc34)n2-c2ccccc2)c(C)c1	inconclusive [inhibitor, single point]	
Cc1cc(NS(=O)(=O)c2ccc(NC(=O)CCCOc3cccc(C)c3C)cc2)no1		inactive: -18.8%
